Consider 84 variants from the RNAGym collection of RNA variant scans (doi:10.1073/pnas.2313332121).

Variants at the background level are over-represented here.

The labels stand for the following.
B1: TPR 5TU (parent)
chain: GGAUCUUCUCGAUCUAACAAAAAAGACAAAUCUGCCACAAAGCUUGAGAGCAUCUUCGGAUGCAGAGGCGGCAGCCUUCGGUGGCGCGAUAGCGCCAACGUUCUCAACUAUGACACGCAAAACGCGUGCUCCGUUGAAUGGAGUUUAUCAUG

Variants of B1 are the subject of the series. The series is described as follows: polymerase ribozyme fitness, log enrichment relative to wild type (log ratio); higher = more active; in vitro selection for triplet polymerase activity. A digest of the protocol: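 Libraries of mutants in each subunit of a heterodimeric triplet polymerase ribozyme were generated by PCR and transcribed. In triplicate, each went through one in vitro selection round: annealing with biotinylated primer, partner subunit and triplets; frozen incubation at −7 °C; gel excision of extended constructs; streptavidin-bead capture; RT-PCR. Fitness, taken from Illumina sequencing of input and output libraries, is the logarithm of a genotype's enrichment over wild-type enrichment, averaged across replicates with inverse-variance weights. The logarithm is base 2, and genotypes needed ≥10 input reads and ≥1 read per output to be kept.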
With C27G A29C C87G A121U, the “polymerase ribozyme fitness (log ratio)” value is at most -4.2.

Consider A26U G48C A49C G59A C69U G92U, for which the “polymerase ribozyme fitness (log ratio)” value is at most -4.2.

For C27A A41U U44A G71C C93G A115U U151A, the “polymerase ribozyme fitness (log ratio)” value was at most -4.2.

As to A26U G86U, the “polymerase ribozyme fitness (log ratio)” value is -3.84.

Turning to A26U G42C C93G A115U, the “polymerase ribozyme fitness (log ratio)” value is at most -4.2.

In the case of A26U C72G G81A G86C, the “polymerase ribozyme fitness (log ratio)” value was at most -4.2.

Consider C27A G83U G126U U145C, for which the “polymerase ribozyme fitness (log ratio)” value is at most -4.2.

A26U C125A: the “polymerase ribozyme fitness (log ratio)” value is -1.8.

In the case of C27A A89C C93A A115G, the “polymerase ribozyme fitness (log ratio)” value was at most -4.2.

For C27G A28C G48A U55A G68C C87U C108G, the “polymerase ribozyme fitness (log ratio)” value was at most -4.2.

Turning to A26U G94C, the “polymerase ribozyme fitness (log ratio)” value was -2.1.

Take C27G A30U G84U C116G: the “polymerase ribozyme fitness (log ratio)” value was at most -4.2.

On to C27A C87U C103G U109G C129A A137U, for which the “polymerase ribozyme fitness (log ratio)” value was at most -4.2.

For the variant C27G A37G C72A C105A, the “polymerase ribozyme fitness (log ratio)” value was -4.13.

For the variant C27G C36A C76A A97U C103G G117U, the “polymerase ribozyme fitness (log ratio)” value is at most -4.2.

C27A U55A C76U A98G: the “polymerase ribozyme fitness (log ratio)” value is at most -4.2.

Turning to C27G A49C G136A, the “polymerase ribozyme fitness (log ratio)” value was at most -4.2.

As for A26U U44A G46A C63A G83U, the “polymerase ribozyme fitness (log ratio)” value is at most -4.2.

As for C27A C85A C93G C96G, the “polymerase ribozyme fitness (log ratio)” value was at most -4.2.

Turning to A26U U53G A89C C103U G117U, the “polymerase ribozyme fitness (log ratio)” value is at most -4.2.

For the variant C27G A60C U77C A97U U135A, the “polymerase ribozyme fitness (log ratio)” value was at most -4.2.

Consider C27A G42C C75A C79A C85G U144G, for which the “polymerase ribozyme fitness (log ratio)” value was at most -4.2.

With C27A G71C C76U C87U G88U U111C A121G U139G, the “polymerase ribozyme fitness (log ratio)” value is at most -4.2.

For the variant A26U U55G G62U C95A U130A G140U A147U, the “polymerase ribozyme fitness (log ratio)” value is at most -4.2.

Regarding A26U C57G G83U C118U G128A, the “polymerase ribozyme fitness (log ratio)” value was at most -4.2.

As to C27G C36G A120U, the “polymerase ribozyme fitness (log ratio)” value was at most -4.2.

Regarding C27G A49G C85U U139C, the “polymerase ribozyme fitness (log ratio)” value is at most -4.2.

Regarding C27G A37U A52C C63U G70U C96U A120G A122U U148G, the “polymerase ribozyme fitness (log ratio)” value is at most -4.2.

As for A26U G50C, the “polymerase ribozyme fitness (log ratio)” value is at most -4.2.

Consider C27A G50C C54U G58A C95G U146G, for which the “polymerase ribozyme fitness (log ratio)” value is at most -4.2.

Take C27A U56A: the “polymerase ribozyme fitness (log ratio)” value was -3.7.

For C27G A120G, the “polymerase ribozyme fitness (log ratio)” value was at most -4.2.

In the case of A26U C99A G133U G143C U146G, the “polymerase ribozyme fitness (log ratio)” value is at most -4.2.

Regarding A26U U55A G58C G62C A119U G133C U146G, the “polymerase ribozyme fitness (log ratio)” value was at most -4.2.

For C27A A41C U55A C105G U135A, the “polymerase ribozyme fitness (log ratio)” value was at most -4.2.

With C27A U33C G88C G141C, the “polymerase ribozyme fitness (log ratio)” value is at most -4.2.

Regarding A26U G42U C51U C79A G86U, the “polymerase ribozyme fitness (log ratio)” value is at most -4.2.

In the case of C27G A52G G59C A91G C105G U109G, the “polymerase ribozyme fitness (log ratio)” value was at most -4.2.

For the variant C27A U53A A119C, the “polymerase ribozyme fitness (log ratio)” value was at most -4.2.

With A26U G59C C103G A106C C132U, the “polymerase ribozyme fitness (log ratio)” value is at most -4.2.

C27G A60G G62C G83C: the “polymerase ribozyme fitness (log ratio)” value was at most -4.2.

Turning to C27A G46U G50U U56A G70C U101G, the “polymerase ribozyme fitness (log ratio)” value is at most -4.2.

In the case of C27A U31G G94U C96U G136A A142U A150C, the “polymerase ribozyme fitness (log ratio)” value was at most -4.2.

For the variant C27A G84A C96G U130A U145A, the “polymerase ribozyme fitness (log ratio)” value is at most -4.2.

As to C27A A73C C96U A142C, the “polymerase ribozyme fitness (log ratio)” value is at most -4.2.

On to A26U G67A C72G G94U A97G A147G, for which the “polymerase ribozyme fitness (log ratio)” value is at most -4.2.

Regarding C27G A30G A39U C87A, the “polymerase ribozyme fitness (log ratio)” value is at most -4.2.

As for C27A A37U G42C A106C C116G A121G G128A U145G, the “polymerase ribozyme fitness (log ratio)” value is at most -4.2.

With C27A A60U A91U A106U, the “polymerase ribozyme fitness (log ratio)” value is at most -4.2.

In the case of C27A G86U C118G A147U, the “polymerase ribozyme fitness (log ratio)” value is at most -4.2.

As to C27A C57A A66G G86U U90G A121G, the “polymerase ribozyme fitness (log ratio)” value is at most -4.2.

Turning to C27A G86U U144A, the “polymerase ribozyme fitness (log ratio)” value was at most -4.2.

On to A26U C118G, for which the “polymerase ribozyme fitness (log ratio)” value is -2.12.

A26U C118A: the “polymerase ribozyme fitness (log ratio)” value is -2.33.

On to C27A U78G A89G A91C G94A A115C C118U U134A, for which the “polymerase ribozyme fitness (log ratio)” value is at most -4.2.

As to A26U G48A G50A C57G A60U C118U A137G A150U, the “polymerase ribozyme fitness (log ratio)” value is at most -4.2.

Turning to C27G C32A C54G C57A G62A C69U G84A C108A, the “polymerase ribozyme fitness (log ratio)” value was at most -4.2.

Turning to C27A G71A G83U A89U C131U A137U, the “polymerase ribozyme fitness (log ratio)” value is at most -4.2.

Regarding A26U G42A, the “polymerase ribozyme fitness (log ratio)” value is at most -4.2.

As for A26U G42A C85A G88U G133C A150G, the “polymerase ribozyme fitness (log ratio)” value is at most -4.2.

With A26U C43U U55A C95U, the “polymerase ribozyme fitness (log ratio)” value was at most -4.2.

Take C27A C85U C96A C114U A119G G140C: the “polymerase ribozyme fitness (log ratio)” value is -4.07.

Take C27G A39G G50C G58C C96G A98U: the “polymerase ribozyme fitness (log ratio)” value was at most -4.2.

In the case of C27G C35U G74U C118U U130A A137U, the “polymerase ribozyme fitness (log ratio)” value is at most -4.2.

Regarding A26U G74U G84A G141C, the “polymerase ribozyme fitness (log ratio)” value was at most -4.2.

Regarding A26U G81A A91U C96G G126A, the “polymerase ribozyme fitness (log ratio)” value is at most -4.2.

For the variant A26U U31C A52U A73G C87A A107G, the “polymerase ribozyme fitness (log ratio)” value is at most -4.2.

In the case of A26U C57A C85U A107C, the “polymerase ribozyme fitness (log ratio)” value was at most -4.2.

Turning to A26U G58C G68A G80U A91G A122C C123U G124U, the “polymerase ribozyme fitness (log ratio)” value was at most -4.2.

In the case of C27A C57G, the “polymerase ribozyme fitness (log ratio)” value was at most -4.2.

Take C27G C32A A39C G50A G58C G62A C99A U109C U145G: the “polymerase ribozyme fitness (log ratio)” value was at most -4.2.

On to C27G A60U G68C C108G, for which the “polymerase ribozyme fitness (log ratio)” value was at most -4.2.

As to A26U U61G A97G A150G, the “polymerase ribozyme fitness (log ratio)” value is at most -4.2.

On to C27A C85A G86U A91C U101A C118G, for which the “polymerase ribozyme fitness (log ratio)” value was at most -4.2.

For the variant C27A A37U A91C, the “polymerase ribozyme fitness (log ratio)” value was -4.17.

As to C27G A28G G65A C93U C95G G100A, the “polymerase ribozyme fitness (log ratio)” value was at most -4.2.

On to A26U C79A, for which the “polymerase ribozyme fitness (log ratio)” value is at most -4.2.

Regarding C27A A47C A120U U139A, the “polymerase ribozyme fitness (log ratio)” value is at most -4.2.

With C27G A39U G74A C87G U102G, the “polymerase ribozyme fitness (log ratio)” value is at most -4.2.

Turning to C27A A106C A113U C125A, the “polymerase ribozyme fitness (log ratio)” value was at most -4.2.

As for C27A G74A C76G G86C G128A C129U U144C, the “polymerase ribozyme fitness (log ratio)” value is at most -4.2.

Turning to A26U G71A G83A A120U, the “polymerase ribozyme fitness (log ratio)” value is at most -4.2.

Take C27G A29C C43G G59C U61G C95G: the “polymerase ribozyme fitness (log ratio)” value is at most -4.2.

For C27A A60U G133A U135C A150U, the “polymerase ribozyme fitness (log ratio)” value is at most -4.2.
